From publication PMC4336329 (PLoS ONE, 2015) come the findings set out here.

The whole screen tested about 310,000 compounds, of which about 14,000 (4.5%) showed an effect of 50% or more. The effect is printed as a negative number. The list shows a part of the results.
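Note: peak tail current of the secondary pulse compared with the same well before compound.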

In the experiment the target is human ether-à-go-go-related gene (hERG) potassium channel (human, UniProt Q12809). The experiment is described as follows: primary screen, population patch clamp on CHO cells stably expressing hERG.
Chain of human ether-à-go-go-related gene (hERG) potassium channel (Q12809 whole entry, looked up): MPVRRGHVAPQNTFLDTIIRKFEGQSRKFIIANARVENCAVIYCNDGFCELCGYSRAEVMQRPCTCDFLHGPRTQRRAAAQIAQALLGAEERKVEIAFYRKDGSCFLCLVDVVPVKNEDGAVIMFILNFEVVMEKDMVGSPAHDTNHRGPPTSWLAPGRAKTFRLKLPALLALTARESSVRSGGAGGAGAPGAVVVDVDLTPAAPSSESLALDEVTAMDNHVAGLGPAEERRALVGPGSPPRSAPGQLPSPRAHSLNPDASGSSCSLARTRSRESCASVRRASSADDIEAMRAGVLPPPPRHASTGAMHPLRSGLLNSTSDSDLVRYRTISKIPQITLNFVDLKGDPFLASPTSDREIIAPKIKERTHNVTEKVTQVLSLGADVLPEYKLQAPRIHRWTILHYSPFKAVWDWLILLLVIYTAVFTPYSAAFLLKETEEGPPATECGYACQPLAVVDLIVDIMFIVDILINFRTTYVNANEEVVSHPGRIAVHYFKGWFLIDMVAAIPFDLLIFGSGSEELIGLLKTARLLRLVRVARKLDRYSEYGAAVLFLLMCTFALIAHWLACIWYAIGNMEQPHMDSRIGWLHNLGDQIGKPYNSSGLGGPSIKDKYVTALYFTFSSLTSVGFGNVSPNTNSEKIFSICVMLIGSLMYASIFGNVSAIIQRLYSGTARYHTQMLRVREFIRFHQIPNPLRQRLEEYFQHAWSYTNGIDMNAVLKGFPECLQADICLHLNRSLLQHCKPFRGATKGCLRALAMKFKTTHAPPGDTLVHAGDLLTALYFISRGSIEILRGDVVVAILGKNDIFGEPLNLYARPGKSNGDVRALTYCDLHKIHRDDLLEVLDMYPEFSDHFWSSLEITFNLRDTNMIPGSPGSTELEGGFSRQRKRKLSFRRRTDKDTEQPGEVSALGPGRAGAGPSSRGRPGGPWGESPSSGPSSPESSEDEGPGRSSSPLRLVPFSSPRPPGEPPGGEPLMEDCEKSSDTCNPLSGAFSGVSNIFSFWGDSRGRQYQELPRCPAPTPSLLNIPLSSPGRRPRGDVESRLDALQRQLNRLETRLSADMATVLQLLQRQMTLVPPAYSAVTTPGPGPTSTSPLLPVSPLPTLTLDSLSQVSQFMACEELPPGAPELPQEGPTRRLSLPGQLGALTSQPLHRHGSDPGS
Turning to `CCOc1ncccc1C(=O)OCC(=O)c1ccccc1Br`, the “hERG current change (%, negative = inhibition) at 10uM” value came out at 0.975%. Consider `CCC(C)n1c(SCC(=O)Nc2cc(C)on2)nc2ccccc2c1=O` (stereo not shown), for which the “hERG current change (%, negative = inhibition) at 10uM” value turned out to be 21.7%. Take `CC1=C(C#N)C(c2ccccc2O)C(C#N)=C(C)N1`: the “hERG current change (%, negative = inhibition) at 10uM” value was found to be 13.8%.

With `Cc1ccc(C2CC2C(=O)NNC(=S)Nc2cccc(C)c2)cc1` (stereo not shown), the “hERG current change (%, negative = inhibition) at 10uM” value is reported as 1.35%. On to `CN(C)CCNC(=S)Nc1ccc(F)c(F)c1F`, for which the “hERG current change (%, negative = inhibition) at 10uM” value is recorded as 22.3%. Consider `COc1ccccc1NC(=O)CSC1=NC(=O)C(Cc2ccccc2)C(=O)N1` (stereo not shown), for which the “hERG current change (%, negative = inhibition) at 10uM” value is 28%. `COc1cc(/C=C(/NC(=O)c2ccccc2)C(=O)Nc2ccccc2)c([N+](=O)[O-])cc1OC`: the “hERG current change (%, negative = inhibition) at 10uM” value was -9.5%. Consider `COc1ccc(Br)cc1Cn1nnc(C(=O)Nc2ccc3c(c2)OCCO3)c1N`, for which the “hERG current change (%, negative = inhibition) at 10uM” value turned out to be 21.7%. With `C[C@H](NC(=O)C1(c2ccccc2)CCN(C(=O)[C@H]2CSCN2C(=O)OC(C)(C)C)CC1)C(=O)O`, the “hERG current change (%, negative = inhibition) at 10uM” value amounted to 6.57%. Consider `CN(C)C(=S)Nc1ccc(N2CCOCC2)cc1`, for which the “hERG current change (%, negative = inhibition) at 10uM” value worked out at 19.8%. The result for `O=C(NCCC1CCCCN1S(=O)(=O)c1ccccc1)C(=O)NC1CC1` (stereo not shown) reads 1.16%. `CCOC(=O)c1[nH]c2ccc(OCC)cc2c1NC(=O)CN1CCCC(C)C1` (stereo not shown): the “hERG current change (%, negative = inhibition) at 10uM” value is on record as -18.3%. Consider `O=c1c2ccccc2ncn1Cc1ccc(Cl)c(Cl)c1`, for which the “hERG current change (%, negative = inhibition) at 10uM” value was -1.7%.

On to `CCN(CC)S(=O)(=O)c1ccc(C(=O)N(c2ccccc2)C2C=CS(=O)(=O)C2)cc1` (stereo not shown), for which the “hERG current change (%, negative = inhibition) at 10uM” value is recorded as -14.8%. As to `COc1ccccc1NC(=S)N(Cc1ccc(Cl)cc1)CC1CCC(C(=O)O)CC1` (stereo not shown), the “hERG current change (%, negative = inhibition) at 10uM” value is reported as -0.117%. The result for `Nn1c(SCc2ccc(F)cc2)nnc1-c1ccccn1` reads 3.97%; that for `COC(=O)c1sccc1NC(=O)CSCCc1ccccn1`, -5.04%; that for `Cc1cccc(N2C(=O)N(c3ccccc3C)C3CS(=O)(=O)CC32)c1` (stereo not shown), 9.18%. In the case of `Cc1c(CNC(=O)c2cnn3c2NC(c2ccc(Br)cc2)CC3C(F)(F)F)cnn1C` (stereo not shown) it was -24.7%; in that of `COc1ccc(-n2ccn(CC(=O)Nc3ccc(OC)cc3OC)c(=O)c2=O)cc1`, 11.3%; in that of `COc1ccc(CNc2ncc(-c3ccccc3)n2C)c(OC)c1OC.O=C(O)C(=O)O`, -44.1%.

Turning to `COc1cccc(N2C(=O)C3ON(c4ccccc4)C(c4cccs4)C3C2=O)c1` (stereo not shown), the “hERG current change (%, negative = inhibition) at 10uM” value was 9.21%.

Regarding `CCOC(=O)/C(C#N)=C/N=c1ccc(C)cn1C`, the “hERG current change (%, negative = inhibition) at 10uM” value is 5.77%.

In the case of `O=C(NC1Cc2ccccc2C1)c1cc(COc2ccc(F)cc2Cl)on1`, the “hERG current change (%, negative = inhibition) at 10uM” value was 13.3%. The result for `O=C(CN1C(=O)COc2ccc(S(=O)(=O)N3CCOCC3)cc21)NCc1ccco1` reads -6.61%; that for `Cn1c(Cl)cnc1C(O)(c1ccccc1)c1ccccc1`, 13.6%; that for `C=CCc1cccc(CNc2nc3ccccc3n2CCN2CCOCC2)c1O`, -6.61%. `CCCCOC(=O)Cn1c(=N)n(CCN(CC)CC)c2ccccc21`: the “hERG current change (%, negative = inhibition) at 10uM” value is -52.3%. With `C/C(=N\NC(=O)C1CC1(c1ccccc1)c1ccccc1)c1cccc([N+](=O)[O-])c1` (stereo not shown), the “hERG current change (%, negative = inhibition) at 10uM” value was -10.1%.

Consider `Cc1c(Cl)cccc1NC(=O)Cn1nc(C)n2cccc2c1=O`, for which the “hERG current change (%, negative = inhibition) at 10uM” value is recorded as 0.727%. With `Cc1ccc(CNC(=O)CCS(=O)(=O)c2ccc3c(c2)NC(=O)CO3)cc1`, the “hERG current change (%, negative = inhibition) at 10uM” value turned out to be 4.46%.

As for `CCSc1nnc2ccc(-c3ccc(C)cc3)nn12`, the “hERG current change (%, negative = inhibition) at 10uM” value is given as -16.9%. Regarding `O=C(Nc1ccc2nc3ccccc3nc2c1)c1ccccc1`, the “hERG current change (%, negative = inhibition) at 10uM” value was 15.6%. In the case of `O=C(O)CNC(=O)c1ccc(N2CCOCC2)cc1[N+](=O)[O-]` it was 13.1%; in that of `CCOC(=O)c1cnn(-c2ccccn2)c1N`, -1.64%. For the compound `CNS(=O)(=O)c1cccc(C(=O)OCc2cc(C(C)=O)ccc2OC)c1`, the “hERG current change (%, negative = inhibition) at 10uM” value is given as 1.6%. On to `COc1ccc(S(=O)(=O)n2nc(-n3c(C)ccc3C)c3c(F)cccc32)cc1OC`, for which the “hERG current change (%, negative = inhibition) at 10uM” value was found to be 13.4%. In the case of `CCc1nc(Nc2ccc(NC(C)=O)cc2)c2oc3ccccc3c2n1.Cl` it was 17.9%; in that of `CC(NC(N)=O)C(=O)NCC(=O)OCc1ccccc1` (stereo not shown), 12.9%.

As to `COCCn1c(SCC(N)=O)nc2c(c1=O)SC(C)C2` (stereo not shown), the “hERG current change (%, negative = inhibition) at 10uM” value was -2.6%. Consider `CC(=O)[C@@]1(O)CC[C@H]2[C@@H]3C[C@H](C)C4=CC(=O)CC[C@]4(C)[C@H]3CC[C@@]21C`, for which the “hERG current change (%, negative = inhibition) at 10uM” value is given as -2.92%.

As to `O=C(Cn1ncc2c3ccccc3n(Cc3ccccc3F)c2c1=O)NCCN1CCOCC1`, the “hERG current change (%, negative = inhibition) at 10uM” value was -55.2%.

Regarding `O=C(NCC1CCCO1)c1cc2ccccc2cc1O` (stereo not shown), the “hERG current change (%, negative = inhibition) at 10uM” value is reported as -12.3%.
